# The list shows a part of the results.
# B1: DC-Sign (Homo sapiens), Q9NNX6 (protein)
# chain: MSDSKEPRLQQLGLLEEEQLRGLGFRQTRGYKSLAGCLGHGPLVLQLLSFTLLAGLLVQVSKVPSSISQEQSRQDAIYQNLTQLKAAVGELSEKSKLQEIYQELTQLKAAVGELPEKSKLQEIYQELTRLKAAVGELPEKSKLQEIYQELTWLKAAVGELPEKSKMQEIYQELTRLKAAVGELPEKSKQQEIYQELTRLKAAVGELPEKSKQQEIYQELTRLKAAVGELPEKSKQQEIYQELTQLKAAVERLCHPCPWEWTFFQGNCYFMSNSQRNWHDSITACKEVGAQLVVIKSAEEQNFLQLQSSRSNRFTWMGLSDLNQEGTWQWVDGSPLLPSFKQYWNRGEPNNVGEEDCAEFSGNGWNDDKCNLAKFWICKKSAASCSRDEEQFLSPAPATPNPPPA
# Columns and labels:
# Experiment in all cases: glycan array binding signal (z-score within array); higher = stronger binding
# Details in all cases: glycan notation: IUPAC condensed, linker removed
# Gal(b1-3)GalNAc(b1-3)Gal = target: Gal(b1-3)GalNAc(b1-3)Gal
# Outline: (§1)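 Glycan array data came from 3228 arrays in the Consortium for Functional Glycomics database, and only arrays with an available protein sequence were kept. Glycan names were put into IUPAC-condensed notation, and columns mapping to the same glycan were averaged. The binding signal is a within-array Z-score, averaged across arrays of one protein sequence run at different concentrations or buffers and across linkers. A negative Z-score can be read as non-binding.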
# [1] = target: Gal(b1-3)GalNAc(b1-3)Gal(a1-4)Gal(b1-4)Glc
# Outline: as §1
# [2] = target: Gal(b1-3)GalNAc(b1-4)Gal(b1-4)Glc
# Outline: as §1
# [3] = target: Gal(b1-3)GalNAc(b1-4)[Neu5Ac(a2-3)]Gal(b1-4)Glc
# Outline: as §1
# Gal(b1-3)GlcNAc = target: Gal(b1-3)GlcNAc
# Outline: as §1
# [4] = target: Gal(b1-3)GlcNAc(a1-3)Gal(b1-4)GlcNAc
# Outline: as §1
# [5] = target: Gal(b1-3)GlcNAc(a1-6)Gal(b1-4)GlcNAc
# Outline: as §1
# Gal(b1-3)GlcNAc(b1-2)Man = target: Gal(b1-3)GlcNAc(b1-2)Man
# Outline: as §1
# [6] = target: Gal(b1-3)GlcNAc(b1-2)Man(a1-3)[Gal(b1-3)GlcNAc(b1-2)Man(a1-6)]Man(b1-4)GlcNAc(b1-4)GlcNAc
# Outline: as §1
# [7] = target: Gal(b1-3)GlcNAc(b1-2)Man(a1-3)[Gal(b1-3)GlcNAc(b1-2)Man(a1-6)]Man(b1-4)GlcNAc(b1-4)[Fuc(a1-6)]GlcNAc
# Outline: as §1
# [8] = target: Gal(b1-3)GlcNAc(b1-2)Man(a1-3)[GlcNAc(b1-4)][Gal(b1-3)GlcNAc(b1-2)Man(a1-6)]Man(b1-4)GlcNAc(b1-4)GlcNAc
# Outline: as §1
# [9] = target: Gal(b1-3)GlcNAc(b1-2)[Gal(b1-3)GlcNAc(b1-6)]Man(a1-6)[Gal(b1-3)GlcNAc(b1-2)Man(a1-3)]Man(b1-4)GlcNAc(b1-4)GlcNAc
# Outline: as §1
# [10] = target: Gal(b1-3)GlcNAc(b1-3)Gal(b1-3)GlcNAc
# Outline: as §1
# [11] = target: Gal(b1-3)GlcNAc(b1-3)Gal(b1-4)Glc
# Outline: as §1
# [12] = target: Gal(b1-3)GlcNAc(b1-3)Gal(b1-4)GlcNAc
# Outline: as §1
# [13] = target: Gal(b1-3)GlcNAc(b1-3)Gal(b1-4)GlcNAc(b1-2)Man(a1-3)[Gal(b1-3)GlcNAc(b1-3)Gal(b1-4)GlcNAc(b1-2)Man(a1-6)]Man(b1-4)GlcNAc(b1-4)GlcNAc
# Outline: as §1
# [14] = target: Gal(b1-3)GlcNAc(b1-3)Gal(b1-4)GlcNAc(b1-2)[Gal(b1-3)GlcNAc(b1-3)Gal(b1-4)GlcNAc(b1-6)]Man(a1-6)[Gal(b1-3)GlcNAc(b1-3)Gal(b1-4)GlcNAc(b1-2)Man(a1-3)]Man(b1-4)GlcNAc(b1-4)[Fuc(a1-6)]GlcNAc
# Outline: as §1
# [15] = target: Gal(b1-3)GlcNAc(b1-3)Gal(b1-4)GlcNAc(b1-3)Gal(b1-4)GlcNAc(b1-2)[Gal(b1-3)GlcNAc(b1-3)Gal(b1-4)GlcNAc(b1-3)Gal(b1-4)GlcNAc(b1-6)]Man(a1-6)[Gal(b1-3)GlcNAc(b1-3)Gal(b1-4)GlcNAc(b1-3)Gal(b1-4)GlcNAc(b1-2)Man(a1-3)]Man(b1-4)GlcNAc(b1-4)[Fuc(a1-6)]GlcNAc
# Outline: as §1
# [16] = target: Gal(b1-3)GlcNAc(b1-3)Gal(b1-4)GlcNAc(b1-6)[Gal(b1-3)GlcNAc(b1-3)]Gal(b1-4)Glc
# Outline: as §1
# [17] = target: Gal(b1-3)GlcNAc(b1-3)Gal(b1-4)[Fuc(a1-3)]GlcNAc
# Outline: as §1
# [18] = target: Gal(b1-3)GlcNAc(b1-3)Gal(b1-4)[Fuc(a1-3)]GlcNAc(b1-6)[Gal(b1-3)GlcNAc(b1-3)]Gal(b1-4)Glc
# Outline: as §1
# [19] = target: Gal(b1-3)GlcNAc(b1-3)GalNAc
# Outline: as §1
# [20] = target: Gal(b1-3)GlcNAc(b1-6)Gal(b1-4)GlcNAc
# Outline: as §1
# [21] = target: Gal(b1-3)GlcNAc(b1-6)GalNAc
# Outline: as §1
# [22] = target: Gal(b1-3)GlcNAc(b1-6)[Gal(b1-3)]GalNAc
# Outline: as §1
# Gal(b1-3)GlcNAc6S = target: Gal(b1-3)GlcNAc6S
# Outline: as §1
# [23] = target: Gal(b1-3)[Fuc(a1-4)]GlcNAc
# Outline: as §1
# [24] = target: Gal(b1-3)[Fuc(a1-4)]GlcNAc(b1-2)Man
# Outline: as §1
# [25] = target: Gal(b1-3)[Fuc(a1-4)]GlcNAc(b1-2)Man(a1-3)[Gal(b1-3)[Fuc(a1-4)]GlcNAc(b1-2)Man(a1-6)]Man(b1-4)GlcNAc(b1-4)[Fuc(a1-6)]GlcNAc
# Outline: as §1
# [26] = target: Gal(b1-3)[Fuc(a1-4)]GlcNAc(b1-3)Gal(b1-3)[Fuc(a1-4)]GlcNAc
# Outline: as §1
# [27] = target: Gal(b1-3)[Fuc(a1-4)]GlcNAc(b1-3)Gal(b1-4)[Fuc(a1-3)]GlcNAc
# Outline: as §1
# [28] = target: Gal(b1-3)[Fuc(a1-4)]GlcNAc(b1-6)GalNAc
# Outline: as §1
# [29] = target: Gal(b1-3)[GlcNAc(b1-6)]GalNAc
# Outline: as §1
# [30] = target: Gal(b1-3)[Neu5Ac(a2-6)]GalNAc
# Outline: as §1
# [31] = target: Gal(b1-3)[Neu5Ac(a2-6)]GlcNAc(b1-4)Gal(b1-4)Glc
# Outline: as §1
# [32] = target: Gal(b1-3)[Neu5Ac(b2-6)]GalNAc
# Outline: as §1
# Gal(b1-4)Gal = target: Gal(b1-4)Gal
# Outline: as §1
# [33] = target: Gal(b1-4)GalNAc(a1-3)[Fuc(a1-2)]Gal(b1-4)GlcNAc
# Outline: as §1
binder,measurement,setting,value
B1,glycan array binding signal (z-score),Gal(b1-3)GalNAc(b1-3)Gal,-0.208
same,glycan array binding signal (z-score),[1],-0.159
same,glycan array binding signal (z-score),[2],-0.09
same,glycan array binding signal (z-score),[3],-0.207
same,glycan array binding signal (z-score),Gal(b1-3)GlcNAc,-0.197
same,glycan array binding signal (z-score),[4],-0.14
same,glycan array binding signal (z-score),[5],-0.047
same,glycan array binding signal (z-score),Gal(b1-3)GlcNAc(b1-2)Man,-0.084
same,glycan array binding signal (z-score),[6],-0.086
same,glycan array binding signal (z-score),[7],-0.183
same,glycan array binding signal (z-score),[8],-0.036
same,glycan array binding signal (z-score),[9],-0.07
same,glycan array binding signal (z-score),[10],-0.156
same,glycan array binding signal (z-score),[11],-0.194
same,glycan array binding signal (z-score),[12],-0.188
same,glycan array binding signal (z-score),[13],-0.137
same,glycan array binding signal (z-score),[14],1.22
same,glycan array binding signal (z-score),[15],1.4
same,glycan array binding signal (z-score),[16],-0.179
same,glycan array binding signal (z-score),[17],-0.132
same,glycan array binding signal (z-score),[18],-0.152
same,glycan array binding signal (z-score),[19],-0.101
same,glycan array binding signal (z-score),[20],-0.151
same,glycan array binding signal (z-score),[21],-0.197
same,glycan array binding signal (z-score),[22],-0.087
same,glycan array binding signal (z-score),Gal(b1-3)GlcNAc6S,-0.19
same,glycan array binding signal (z-score),[23],1.01
same,glycan array binding signal (z-score),[24],-0.055
same,glycan array binding signal (z-score),[25],0.135
same,glycan array binding signal (z-score),[26],2.51
same,glycan array binding signal (z-score),[27],0.304
same,glycan array binding signal (z-score),[28],-0.117
same,glycan array binding signal (z-score),[29],-0.182
same,glycan array binding signal (z-score),[30],-0.18
same,glycan array binding signal (z-score),[31],-0.187
same,glycan array binding signal (z-score),[32],-0.112
same,glycan array binding signal (z-score),Gal(b1-4)Gal,-0.19
same,glycan array binding signal (z-score),[33],-0.178

# Source: the supplement of paper PMC8728848
